As usually defined, the % Inhibition is the relative decrease from the control value, in per cent.

Screen size: about 150,000 compounds; about 540 (0.36%) showed an effect of 50% or more. The list shows a part of the results.

In this assay the test system is Plasmodium falciparum. The assay is described as follows: Primary screen in NF54 nanoGlo assay, in single point, at 2uM, 72h; a lower Z score goes with more inhibition. The following applies: timepoint 72 hour. Type of assay: functional, Erythrocyte.
With `Cc1nscc1C(=O)OCc1cncn1C`, the “% Inhibition” value is on record as -9% and the Z score is 1.22.
As for `CCOC(=O)N1CCN(c2ncc(Cl)c(N3CCN(C(=O)OCC)CC3)n2)CC1`, the “% Inhibition” value is reported as -16% and the Z score is reported as 3.46.
On the same counts, the results for `O=C(O)[C@H]1C[C@H](C(=O)NCc2ccccn2)CN(CCCc2ccccc2)C1` are -6% and 0.52.
For `CC1(C)Cc2nc(N3CCOCC3)ncc2[C@@H](NC2CCC2)C1` the same measures were -17% and 1.47.
For `COc1cc(F)c(C(=O)N[C@@H](C)C2(S(C)(=O)=O)CC2)c(F)c1`, the “% Inhibition” value is -12% and the Z score is reported as 1.44.
On the same counts, the results for `Cc1cc(C(=O)O)nn1-c1cnc2ccccc2c1` are -2% and 0.31.
Regarding `C[C@H]1COc2ccc(C(=O)NCc3nccc(C(F)F)n3)cc21`, the “% Inhibition” value is given as 0% and the Z score was -0.01.
On the same counts, the results for `COc1cc2c(cc1OC)CN(C(=O)[C@H](CC(C)C)N1Cc3ccccc3C1=O)[C@H](C(N)=O)C2` are 0% and -0.05.
On the same counts, the results for `CC1(C(=O)NCC(O)C(F)(F)F)CCCO1` (centres undefined) are 10% and -1.27.
For `O=C(N[C@@H]1CN(c2ncccn2)C[C@H]1CO)c1ccc(F)cc1`, the “% Inhibition” value is -12% and the Z score is listed as 1.69.
`CCOc1cc2cc(c1)C(=O)N(C)CC(=O)N[C@@H]1CN(C(=O)CCc3c(C)nc(O)nc3C)CC[C@@H]1OCc1cccc(c1)O2`: the “% Inhibition” value is given as -19% and the Z score amounted to 2.4.
On the same counts, the results for `CC1CCC(Oc2cc(CNC(=O)N3CC4CCC3CN4)ccn2)CC1` (centres undefined) are -1% and 0.22.
Consider `CC(C)(C)c1nc2ncccn2c1-c1ccc(C(=O)N[C@H]2CCOC2)cc1`, for which the “% Inhibition” value is -1% and the Z score is 0.1.
In the case of `CCOC(=O)C(F)(F)[C@H](N)c1ccccc1`, the “% Inhibition” value is -10% and the Z score worked out at 1.24.
With `CCN(Cc1cnn(CC)c1)C(=O)[C@@H]1CCC(=O)N(CC(C)C)[C@@H]1C`, the “% Inhibition” value is reported as -6% and the Z score amounted to 0.82.
Turning to `Cc1csc(C(C)(C)NCC(=O)N(C)CC(F)(F)F)n1`, the “% Inhibition” value was -7% and the Z score was determined as 0.73.
Consider `Cc1cnn(CC2CCCN2C(C)c2nnc(-c3cccs3)o2)c1` (centres undefined), for which the “% Inhibition” value is listed as -12% and the Z score is recorded as 1.4.
For `CCNc1ncc(C(=O)N2CC(=O)N(c3cccc(Cl)c3)C[C@@H]2C)cn1` the same measures were -11% and 2.18.
As to `COc1cccc(N2CCN(C(=O)c3cc(C)nc4c3c(C)nn4-c3cccc(F)c3)CC2)c1`, the “% Inhibition” value was -5% and the Z score is 0.51.
Turning to `CN([C@@H](CCc1ccccc1)C(F)F)S(=O)(=O)c1cnnn1C`, the “% Inhibition” value is reported as -7% and the Z score was 1.18.
On the same counts, the results for `Cc1ccc(-c2noc(CCn3nc(-c4ccc5c(c4)OCO5)ccc3=O)n2)cc1` are -1% and 0.11.
On the same counts, the results for `CC(C)c1nnc(CNC(=O)Cc2cc(F)c(F)cc2F)n1C` are 3% and -0.44.

The values above are taken from ChEMBL document CHEMBL4888484, “Replenishing the malaria drug discovery pipeline: Screening and hit evaluation of the MMV Hit Generation Library 1 (HGL1) against asexual blood stage Plasmodium falciparum ,using a nano luciferase reporter read-out” (2022).
